The source of these data is the supplement of paper PMC12632987.

Over roughly 4,500 sequences, “median log2 fold change of GCK-ALFA target abundance (FLAG IP / Myc IP barcode read proportion)” has its median near 0.078; the lowest 2% begin near -0.6. The list shows a part of the results.

B1: GBRAP_160_4849 (protein)
chain: SEKKEKVRKELLEAREFVLSLIPEVTVEQLAAFYDAEISSTLLELYEKGYINEEAEDAGLELADEMREELLAAADATPEELRRLVEEGVERMIKEIEKLM
B2: GBRAP_160_4609 (protein)
chain: KEKQKKFKEEIKKEFEEAIKMIEGETIEERANIIDVTIGQIIIEADELEVVSDESLDKIDEIRDEVVNYILENPDLTDEEIKKLIKEAEEKILAIVEADE
B3: GBRAP_80_6836 (protein)
chain: MEEKLEEAVKEIEEVDPEIAEKVKRIIEIAKELGVPLEDLLRLTEAILELAKVDKEKALELVERLLEEMEEALKRGDRDEALADIVDAESDALLHVEELE
B4: GBRAP_83_6884 (protein)
chain: KEEITVAGPGDRIEELAEIAIDLSKNEGYEVTIEIIAKPEELEKVLEGVERLAKEGLNVEVRIYAEGVTEEEAEELKKKIEEIAKKHGVKINVEITLEEP
B5: GBRAP_128_3523 (protein)
chain: SVAAARAAARATVDAIAAASVEEARAIARAFLAQLRGWSLEEVAAAVDVMRELLPRLSAEKLEAVADAIEEQRGAFSPEVARLLADLQVEALNLAEELEE
B6: GBRAP_52_6269 (protein)
chain: MKELAEKLAKEFIETSLNGTEEEVKEFAKKLVETESQELIELMLEIVVEMAKSLNAEELEKLLDAFLILEDELEEAGKDTLPAEDAAAELAKLYMEKLKE
B7: GBRAP_18_5402 (protein)
chain: APSPFEQDWASLSEEAQDFVAKAIGDALSEEDTERRIEILVDALVELSERLSPEEVYAAMRLLLRSVVSRMEEAEEVARRFIERVPERRPEAERVLEDLK
B8: GBRAP_52_5854 (protein)
chain: SSERARELARELVELALAGDEEGLEKRIKEIVETLSEEEILEILDELARLAKTATPEEVDAIVEVAIKLAEIAEEAGFDEWELSAAEARVGQAAYKNLQA
B9: GBRAP_186_5372 (protein)
chain: EEEAEKEIEEFIDKAAKEGYVISGVLEVKEFTEEAKERIIRELEALAEFSAEFGYKGALIIKTYLSEEEFEKLKEFVEEKREELSKETGAEVEVKIVHVK
B10: GBRAP_74_6568 (protein)
chain: SEELIKEIKEIAENKSLKEFSEFILKNIEKLDEESLLVAAKEFAKKVKEEKETITEEELEIAEEAAAALAEKAFQEDSSRETLKAVNELIKEVVEAEKSL
B11: GBRAP_78_6731 (protein)
chain: ELEKLLEEAIKVASEAAKLAVKQASNEVIAEIVEALSHLEEALELVEEGGEKEEILEELEKALEHLKEALKLLPESLTEIKKLLEEAIKLVEEAIKEVKK
B12: GBRAP_160_4843 (protein)
chain: SEKLEKVKKELEEARDFILSLVDEVSVEQVAKFADAELGSTALYLYEEGYINEEALDAILEEADKLVAELLANKNASVEEIKAIIDEHVKRAIEKVEKLL
B13: GBRAP_26_5491 (protein)
chain: KVEEILKEAAKKVREILKDESETKRAAIVAYVEDELLEAEEIFEENANNEEKIEEAKEEALKRVEEGLKDFGISEEKREKIVEVVKEALEKIEKAIKEEA
B14: GBRAP_52_5998 (protein)
chain: REARIRAVAEELVAAVLAGDEAGLRALLRELAATFTPEEIVATVALATELLMRDPRATDEDVRRFIDLVEEVLEEEGQDERTIADVTGAIARAIARAEAE
B15: GBRAP_11_2927 (protein)
chain: KKEKIKEIAELAEELAEAADRLIAEGTDNEELRKKLEELLEKLVELVKEYGDEADKKDAEHMRELWEKAKADPANAVQYLTELRNEARVLSGIYLLEYDE
B16: GBRAP_11_2788 (protein)
chain: KKEKLEKLAKLLEEAAKLLEKMLAGPPDDEELWKETEKKLEEAEKLAKELGLEDVAELLEYAKEDLEKAKADPENRKEYLQRALTFVRVAEGLVLLEIEE
B17: GBRAP_35_5558 (protein)
chain: ETDEEVLEMMTNTAEDALLAVDTIPVETLYEITTSIARAALKILREEKDNEEGMGKLAKATLELLDATIEKLKKEGAPQEKIEELEKLRKEIEEELEKIK
B18: GBRAP_160_4519 (protein)
chain: SEALEEAEKELEETAKEAIEMIKGETAEQRAVIVAGEFGSFAMELASNEEFSDEMVDVVLDGEDELVAYILANPDLTDEELEKLIEETVKKIKEELRKLS
B19: GBRAP_9_7159 (protein)
chain: LQALLDAFAAVLRDAFDEIAEIVPPEHRPVVEAARAEFEARFAALKADPSTTAEEAKEAALEALRRAAERVAAVVDPATARQAEAIILTAELEIEEIYEK
B20: GBRAP_128_3557 (protein)
chain: STEEAVERVRELLEAIKNSDAETARELAEELAALLAAADEETREAIVEEILERLPELSVEHLEILADVFRAAQPSADPAVAEALAEIAVEALNEAVEKEE
B21: GBRAP_160_4334 (protein)
chain: SEETEKLKKFIEEEFEETEKLIEGETIEQVKVLIEGTFGEIIMELSENEKVSDELLDKVIEIEDELLETLDKNPDLTEEEIKELIKESREKIIKALEESE
B22: GBRAP_160_4838 (protein)
chain: SEKVKAVRERLTAARDRVLAEVDKVTVEQLANFYDVEFSSVILDLREEGYINEEAEDVALEIVDQGVADLLAAKDATPEELRAIITRHTDRLIAEIEKLI
B23: GBRAP_78_6684 (protein)
chain: EVEEELEKAIEHLNKAAKLLNEIGTEEALDLLGEVIDAAATVEEAYFGEADLEELEKALKKLKAALKKAKEIPTAEAKEVAAELAKAIAHLEKAIKLLKK
B24: GBRAP_11_2647 (protein)
chain: KKETLLEAAEIARELAEVIKELIEKGVDDKELQKKAEELLKKLEELAKKYLNEAIKSDVEVAKELWKEFKEDKENALKYAKELLAAVRVLEGNLLLEADE
B25: GBRAP_184_5339 (protein)
chain: KTLEVHIPNSSTEEIVAKFREAAKEAAAQGADLNVHIEAEGMSTEEVVALLKELGKIAKEEGIKNVTVGIDQELDEEGADKVIAVADEYGIRLTVALKDE
B26: GBRAP_160_4448 (protein)
chain: SETLEKLIKLVDETTEEIKKLIEGQTHEERVVIIDVGFGELLLEFIENENVSDELEDEIAEIVDETVEYLKNNPELTEEEIKELIDEAGEKIKEAIKKHL
B27: GBRAP_80_6772 (protein)
chain: MEEEIEKVLKEIEKIDPEIAKLVKEAIEVARKLGVPEEVILDFAKAILELAKKDKEKARKIVKEALEELKEALKRGDKEEALAILVDAISEALLEVEELE
B28: GBRAP_160_4525 (protein)
chain: SENLEKAKELLEETAKELIELMKGESAEERAVIAAVEFGSLAYEFSEIPGITDEMVDVVLKQQDKLVAWILAHPDITDEEFAAKVEETVKTIKEELEKLS
B29: GBRAP_128_3350 (protein)
chain: LDEERLARVRAMAEAMVAADVETTRALTRELAAFIRTLDRATAEAAAEIVEAALPRFTVEQLEAIADALREARPEADPYVANLLAGVEVEALNEAEELEE

Sequence of GABARAP, O95166 (O95166 whole entry, the tested form may be a part): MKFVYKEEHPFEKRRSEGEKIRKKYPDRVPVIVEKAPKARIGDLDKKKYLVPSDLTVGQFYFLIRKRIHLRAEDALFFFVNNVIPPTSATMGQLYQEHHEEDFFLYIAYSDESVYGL

The assay deals with GABARAP, O95166. Description: median log2 fold change of GCK-ALFA target abundance (FLAG IP / Myc IP barcode read proportion) (log2 ratio); each designed protein is fused to an ALFA-tag nanobody in HEK293 cells to bring the named protein to FLAG-tagged glucokinase (GCK); Myc marks an untargeted standard; higher = target protein stabilised (more abundant). Conditions: target protein: 3xFLAG-MCP-GCK-ALFA reporter; HEK293 landing pad (RPLP). The method in brief:
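HEK293 landing-pad cells received a recombined binder library fused to the ALFA nanobody and were induced with 2 μg mL^−1 doxycycline, then transfected with a plasmid encoding a FLAG-tagged target and a Myc-tagged standard. Lysates were collected after 48 h for anti-FLAG and anti-Myc immunoprecipitation, and the circular RNA barcodes were reverse transcribed, amplified and sequenced. Target abundance for each binder is the median log2 ratio of FLAG to Myc barcode read proportions. Barcodes had to reach a proportion of at least 10^−7 in both replicates, each binder needed at least 3 barcodes per replicate, a pseudocount of 10^−6 was applied, and the two replicates were pooled.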
As to B1, the “median log2 fold change” value was -0.327.

Take B2: the “median log2 fold change” value was -0.0815.

As for B3, the “median log2 fold change” value is -0.0402.

Regarding B4, the “median log2 fold change” value turned out to be 0.189.

On to B5, for which the “median log2 fold change” value amounted to 0.214.

As to B6, the “median log2 fold change” value stood at 0.267.

In the case of B7, the “median log2 fold change” value worked out at 0.25.

As for B8, the “median log2 fold change” value was -0.122.

Consider B9, for which the “median log2 fold change” value was 0.0239.

Consider B10, for which the “median log2 fold change” value turned out to be 0.053.

With B11, the “median log2 fold change” value is 0.0787.

Turning to B12, the “median log2 fold change” value was -0.0079.

For B13, the “median log2 fold change” value stood at 0.261.

B14: the “median log2 fold change” value turned out to be 0.0658.

For B15, the “median log2 fold change” value turned out to be 0.134.

Consider B16, for which the “median log2 fold change” value was -0.273.

With B17, the “median log2 fold change” value stood at 0.122.

With B18, the “median log2 fold change” value was -0.322.

As to B19, the “median log2 fold change” value is 0.249.

For B20, the “median log2 fold change” value stood at 0.148.

Regarding B21, the “median log2 fold change” value is -0.128.

With B22, the “median log2 fold change” value is 0.195.

For B23, the “median log2 fold change” value was 0.239.

B24: the “median log2 fold change” value was found to be 0.394.

For the molecule B25, the “median log2 fold change” value turned out to be 0.215.

For the molecule B26, the “median log2 fold change” value was -0.366.

Consider B27, for which the “median log2 fold change” value turned out to be 0.119.

For the molecule B28, the “median log2 fold change” value is -0.0547.

With B29, the “median log2 fold change” value is 0.0288.
